From the supplement of paper PMC11417369
Some of the results follow.

system: PfHDP1 homeodomain (GST-tagged); assay: gcPBM binding intensity (ln(normalized median fluorescence intensity)); higher = stronger DNA binding
In short: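 Alexa488 anti-GST antibody, scanned at 488 nm, detected GST-tagged P. falciparum DNA-binding domains that had been expressed in E. coli and incubated for 1 h on an Agilent 4 × 180k array. The array carried primer-extended double-stranded 36-bp intergenic genomic probes and negative controls. Binding intensity is the highest Masliner-normalised natural-log median intensity across replicate spots of either orientation of each probe.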

Sequence | gcPBM binding intensity (ln)
CAAATAAAAACAAAACGTACGAATAAATTATTGTTA [XGTACX_site5136] | 6.73
ATATATAAAAATTAGGTGCATTAAATTAAAATATAT | 9.74
CACATATAAATATTAACACACATAATGAATTATATA [CACACA_site2741] | 6.23
TATTTGATCTAAAGAGCATGCAAAAACGAACAAGAT [TGCATGCA_site136] | 8.36
ATATCGTTATTTTTATGTACTAAAATATTTAATTAT [XGTACX_site3516] | 7.03
AAATTGGTTCATCAATGTACATGTAAAATAAATCAA [XGTACX_site4795] | 6.67
TAATGAGGAAATACAGCACACGTTATTACACTTTTC [CACACA_site5399] | 6.45
AATAATGTTATAAATTGTACGTGTATTATTCATTAC [XGTACX_site894] | 6.39
TATATTTATCCATACAAGAAAAAAAAAAAAAAAATA [CACACA_negctrl_site1328] | 6.16
TACACCCACCCACATACACACACATACACATATATA [CACACA_site8503] | 7.42
CCACTTAAAATAAAAAGTACATACAGGTGTTATACA [XGTACX_site8124] | 6.11
TCAATATTAAATTATTGTACATGTATGTATATATAT [XGTACX_site3861] | 7.01
TTTTTTTTTTTTTTTTTACACACTTTATTCAAACAA [CACACA_site9360] | 6.44
ATAAAATATATATATATAAAAATAAATACATAAATA [GTGCAC_negctrl_site157] | 6.31
CAAACAAACAGACACACACACACACCCAAAAATGAT [CACACA_site2430] | 6.79
TTTATATAAATTTTTTGTACACAAGTAAAAACGCGT [XGTACX_site2459] | 6.64
ACACAAATAAATATAACATATATATTATATTATATT [CACACA_negctrl_site710] | 6.68
TATATATATATATATACACACATACAGATATATATT [CACACA_site4629] | 9.36
TATATAAGAACTTTTACACACATGAAAATGTAGATA [CACACA_site7711] | 6.28
TTACTATTATTATTTTTTATTTTTATTTTATTTATT [TGCATGCA_negctrl_site269] | 6.45
CACTAAAAGAAACACACACACACACCCATATATATA [CACACA_site4151] | 6.95
ATATACACATATACATGTACAAATATATATACACAT [XGTACX_site2986] | 6.9

Sequence | gcPBM binding intensity (ln)
TATTTAAAATAATGTGCAAAAGAATAAATAAATAAA [TGCATGCA_negctrl_site194] | 10.3
TTGTAAGAAAGACACACACACACATATAAATATGTA [CACACA_site6516] | 6.51
TTCATTTTCATATATTGTACAAAATTTTATAAGGTT [XGTACX_site4522] | 6.99
TAAAATAAAAAAGTAGTACACACTTCACGATATTTT [CACACA_site3896] | 6.1
AATATAAAACTTTAGAGTACTTATCATTAAAATATA [XGTACX_site4509] | 6.1
TTAAAAGTAAGCAAAGTGCATATAACAAAAGTAAAG | 8.67
ATTAATAATGAAAAAAAACACACGGTACATTCAAAG [CACACA_site1302] | 6.75
GGAACAAATAATATCACACATATATATATATATATA [CACACA_site5670] | 9.48
ATATATTTTATACATACACACATATAAATATTTTTT [CACACA_site7780] | 6.83
TACGCAACCAAAAGTTGTACTAATTTTTTTTTTTTG [XGTACX_site7432] | 6.45
TAATAAATATATTGAAGTACTTATAAAAAGCAATAT [XGTACX_site6262] | 7.22
TATTAAACTTGACACACACACACACGCATATATAAA [CACACA_site6496] | 7.01
TACGGGAAAGATAAGAAACACACGGAAAATTAGACG [CACACA_site1661] | 7.15
TTTTTTAATACATATGCATGTTCAAGTACGAAAAAA [TGCATGCA_site641] | 6.35
ATATATATATATAATACACACTAAAGTAACATAATA [CACACA_site5580] | 8.8
TTCATGTCCTATTAATGTACTCTACACACATATAAG [XGTACX_site899] | 6.76
AAAAAAAAAAAAAAAACACACACATATATATATATA [CACACA_site8571] | 9.17
TGTATATAATCGAGTGCACACACAAAAAAAAAGTGA [CACACA_site8417] | 10.1
TTTATTTATTTTTGTTGTACACTTGTATATATTATT [XGTACX_site6486] | 6.94
ATTTTATATACACTTTGTACTTATTTTATTCTTCTT [XGTACX_site4200] | 7.1
TTTAAAAAAAAAAATACACACATAAAAATTTTCAAA [CACACA_site703] | 6.43
ATTATAAGAAGGGGGGGTACATAAATATAAATGTAT [XGTACX_site5624] | 8.12
